Laboratory results from the antibiotic and cytotoxicity screens of Wong et al. (2023).
Some of the results follow.

What follows are compounds tested on HSkMC (human skeletal muscle cells) (assay: cytotoxicity call (relative viability < 0.9)). Details: 10 µM.

SMILES	cytotoxicity call
C[C@@H]1CN([C@@H](C)CO)C(=O)c2cc(NC(=O)Cc3ccccc3)ccc2O[C@@H](C)CCCCO[C@H]1CN(C)C(=O)Nc1cccc2ccccc12	inactive
O=C(O)C1(O)CC(O)C(O)C(O)C1 (stereo not given)	inactive
COc1ccccc1C#Cc1cnc2c(c1)C(=O)N([C@@H](C)CO)C[C@H](C)[C@H](CN(C)C(=O)c1ccc3c(c1)OCO3)O2	inactive
COCCOC(=O)N1C(=O)[C@@]2(c3cc(C#CC4=CCCCC4)ccc31)[C@H](c1ccc(O)cc1)N1[C@H](c3ccccc3)[C@H](c3ccccc3)OC(=O)[C@H]1[C@@H]2C(=O)N1CCN(c2ncccn2)CC1	inactive
NC(=O)[C@@H]1C(=O)C[C@@H]2C[C@@H]3Cc4cccc(O)c4C(=O)[C@@H]3C(=O)[C@]2(O)C1=O	inactive
Cc1noc(C)c1S(=O)(=O)Nc1ccc2c(c1)CC(=O)N([C@@H](C)CO)C[C@@H](C)[C@H](CN(C)S(=O)(=O)c1ccccc1)O2	inactive
COc1ccccc1-c1ccc2c(c1)O[C@@H](CN(C)CC1CCOCC1)[C@@H](C)CN([C@H](C)CO)S2(=O)=O	inactive
C[C@@H]1CN([C@@H](C)CO)C(=O)Cc2cc(NC(=O)Nc3ccc(F)cc3)ccc2O[C@H]1CN(C)Cc1ccc(Cl)c(Cl)c1	active
O=C1CCCCCN1	inactive
O=C(C[C@H]1C[C@H]2c3cc(NS(=O)(=O)c4ccc(F)cc4)ccc3O[C@H]2[C@@H](CO)O1)NCc1ccccn1	inactive
CCc1c(C(=O)OC)nnc2cc(C)nn12	inactive
C[C@@H]1CN([C@@H](C)CO)C(=O)c2cccc(NC(=O)C3CC3)c2O[C@H]1CN(C)C(=O)Nc1ccc2c(c1)OCO2	inactive
CO[C@H]1CN(C)C(=O)c2cc(NS(C)(=O)=O)ccc2OC[C@H](C)N(C(=O)c2ccc3c(c2)OCO3)C[C@@H]1C	inactive
CC=CCC(C)C(O)C1C(=O)NC(CC)C(=O)N(C)CC(=O)N(C)C(CC(C)C)C(=O)NC(C(C)C)C(=O)N(C)C(CC(C)C)C(=O)NC(C)C(=O)NC(C)C(=O)N(C)C(CC(C)C)C(=O)N(C)C(CC(C)C)C(=O)N(C)C(C(C)C)C(=O)N1C (stereo not given)	inactive
CCCC(=O)Nc1ccc2c(c1)OC[C@H](C)N(S(=O)(=O)c1cn(C)cn1)C[C@H](C)[C@@H](OC)CN(C)C2=O	inactive
C[C@H](CO)N1C[C@H](C)[C@@H](CN(C)C(=O)Nc2ccc3c(c2)OCO3)OCCCC[C@H](C)Oc2ccc(NS(=O)(=O)c3ccccc3)cc2C1=O	inactive
CCCNC(=O)N1C[C@]2(CCN(CC2)S(=O)(=O)c2cccc(c2)OC)c2c(n(c3cc(ccc23)OC)C)[C@H]1CO	inactive
C[C@H]1CCCCO[C@H](CN(C)S(=O)(=O)c2cccs2)[C@@H](C)CN([C@@H](C)CO)C(=O)c2cc(NC(=O)Cc3ccccc3)ccc2O1	inactive
C[C@H](CO)N1C[C@H](C)[C@@H](CN(C)S(C)(=O)=O)Oc2ccc(NC(=O)Cc3cn(C)c4ccccc34)cc2CC1=O	inactive
Nc1ccn([C@@H]2O[C@H](CO)[C@@H](O)[C@@H]2O)c(=O)n1	inactive

SMILES	cytotoxicity call
COc1ccc(S(=O)(=O)N(C)C[C@@H]2OCCCC[C@H](C)Oc3ccc(NC(=O)Nc4ccc5c(c4)OCO5)cc3C(=O)N([C@H](C)CO)C[C@@H]2C)cc1	inactive
NCCCN1CCCN(CCCN)CC1	inactive
C[C@@H]1CN([C@@H](C)CO)C(=O)c2cccc(NC(=O)Nc3ccc4c(c3)OCO4)c2O[C@@H]1CN(C)Cc1ccc(C(F)(F)F)cc1	inactive
C[C@@H]1CCCCO[C@@H](CN(C)C(=O)Nc2cccc3ccccc23)[C@@H](C)CN([C@H](C)CO)C(=O)c2cc(NC(=O)Nc3ccc(F)cc3)ccc2O1	inactive
C[C@@H]1CN([C@@H](C)CO)C(=O)c2ccccc2-c2ccccc2CO[C@@H]1CN(C)S(=O)(=O)c1ccc(C(F)(F)F)cc1	inactive
C[N+](C)(C)CCCCNC(=O)[C@H]1C[C@H]2C(=O)N[C@@H](Cc3ccccc3)C(=O)N2[C@H]1c1cccc(OCCO)c1	inactive
C[C@@H]1CN([C@H](C)CO)C(=O)c2cc(NC(=O)Nc3cccc4ccccc34)ccc2O[C@@H](C)CCCCO[C@H]1CN(C)C(=O)C1CCCCC1	inactive
C[C@H](CO)N1C[C@H](C)[C@@H](CN(C)C(=O)Nc2ccc(F)cc2)Oc2ccc(NS(=O)(=O)c3cn(C)cn3)cc2CC1=O	inactive
CS(=O)(=O)CCCCN=C=S	inactive
CC(C)N1C[C@H](C)[C@@H](CN(C)Cc2ccc(Cl)cc2)Oc2c(C(=O)Nc3ccncc3)cccc2C1=O	inactive
Cc1cc(C)nc(SCC(=O)NN)n1	inactive
COc1ccc(S(=O)(=O)N(C)C[C@H]2Oc3ncc(-c4ccncc4)cc3C(=O)N([C@H](C)CO)C[C@H]2C)cc1	inactive
CC(C)NC(=O)N(C)C[C@@H]1OCCCC[C@H](C)Oc2ccc(NC(=O)Nc3ccccc3)cc2C(=O)N([C@H](C)CO)C[C@@H]1C	inactive
C[C@@H]1CN([C@H](C)CO)C(=O)Cc2cc(NC(=O)Nc3cccc4ccccc34)ccc2O[C@@H]1CN(C)S(=O)(=O)c1ccc(F)cc1	inactive
Cl.Cl.Cl.NCCCCNCCCN	inactive
CN1C(=O)[C@H]2CN(C)c3ccccc3[C@H]2C1=O	inactive
O=C(C[C@@H]1CC[C@@H]2[C@H](COC[C@H](O)CN2S(=O)(=O)c2ccc(F)cc2)O1)N[C@H]1CCN(Cc2ccccc2)C1	inactive
C[C@H]1CCCCO[C@H](CN(C)C(=O)Nc2cccc3ccccc23)[C@@H](C)CN([C@@H](C)CO)C(=O)c2cc(NS(=O)(=O)c3ccc(Cl)cc3)ccc2O1	inactive
CC(=O)NCC(=O)N1C[C@H](N(C)Cc2cncnc2)[C@@H]2OCCC[C@@H]21	inactive
C[C@@H]1CCCCO[C@@H](CN(C)C(=O)NC2CCCCC2)[C@H](C)CN([C@H](C)CO)C(=O)c2cc(NC(=O)CCC(F)(F)F)ccc2O1	inactive
